# PubChem BioAssay AID504339 (National Center for Advancing Translational Sciences (NCATS), 2011)
# Several values for one entry are separate records, joined by “and”; a condition that tells them apart may be missing. Equal values may be shown once. The campaign covered roughly 390,000 compounds. About 17,000 (4.4%) were called active. Inconclusive means that the source gave no clear call. Such entries were picked first, then a sample of the others. The call rests on the fitted dose curve; in most records, active means well fitted inhibition curve with a large enough effect; inconclusive means small, poorly fitted or top-dose-only effect; inactive means no such curve, though single readings can be large or run the other way. Potencies of inconclusive entries are doubtful fits and often do not repeat. Some compounds were tested as several samples or in several runs, with calls that do not always agree.
# Target: Lysine-specific demethylase 4A (Homo sapiens) (UniProt O75164)
# UniProt O75164, sequence (O75164 whole entry, looked up, the tested form may be a part): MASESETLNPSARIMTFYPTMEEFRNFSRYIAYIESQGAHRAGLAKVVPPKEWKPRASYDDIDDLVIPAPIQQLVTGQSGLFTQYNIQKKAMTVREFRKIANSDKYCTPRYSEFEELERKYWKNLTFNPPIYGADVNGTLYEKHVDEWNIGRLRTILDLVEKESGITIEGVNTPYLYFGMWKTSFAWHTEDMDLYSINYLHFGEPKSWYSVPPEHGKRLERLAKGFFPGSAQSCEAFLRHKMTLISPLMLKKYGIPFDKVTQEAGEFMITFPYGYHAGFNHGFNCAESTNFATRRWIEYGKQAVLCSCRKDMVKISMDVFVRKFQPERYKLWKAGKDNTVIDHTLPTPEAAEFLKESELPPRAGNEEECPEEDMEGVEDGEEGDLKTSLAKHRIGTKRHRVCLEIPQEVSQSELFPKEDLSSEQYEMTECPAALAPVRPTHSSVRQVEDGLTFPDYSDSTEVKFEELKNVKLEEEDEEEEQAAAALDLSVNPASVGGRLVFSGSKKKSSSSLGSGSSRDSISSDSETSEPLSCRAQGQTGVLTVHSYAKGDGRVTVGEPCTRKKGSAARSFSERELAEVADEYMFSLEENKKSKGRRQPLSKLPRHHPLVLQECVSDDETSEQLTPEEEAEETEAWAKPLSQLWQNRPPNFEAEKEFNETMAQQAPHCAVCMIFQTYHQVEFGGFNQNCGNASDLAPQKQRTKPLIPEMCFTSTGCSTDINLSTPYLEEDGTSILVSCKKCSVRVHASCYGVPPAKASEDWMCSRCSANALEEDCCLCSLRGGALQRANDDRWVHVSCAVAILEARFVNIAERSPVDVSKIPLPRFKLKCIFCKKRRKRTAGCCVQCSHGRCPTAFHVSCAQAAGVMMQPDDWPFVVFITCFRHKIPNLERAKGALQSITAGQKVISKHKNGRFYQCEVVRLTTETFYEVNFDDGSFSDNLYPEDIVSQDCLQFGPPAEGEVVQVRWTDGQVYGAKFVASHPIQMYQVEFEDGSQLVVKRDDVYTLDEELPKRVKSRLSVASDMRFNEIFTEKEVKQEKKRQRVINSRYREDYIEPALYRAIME
# Experiment: qHTS Assay for Inhibitors of JMJD2A-Tudor Domain; further: nearly all actives have a fitted effect of over 50% in size
# Settings: AlphaScreen JMJD2A-Tudor / H3K4me3 peptide binding; activity change, negative = inhibition: at 114 µM (top of the series)
# On the % scale 0 is the no-effect control and ±100 the full control effect; potency means the concentration at half of the fitted maximal effect; tags describe the fitted curve by direction and shape.
SMILES,Potency,"activity change, negative = inhibition"
CCOC(=O)CSc1nc2sc3c(c2c(=O)n1-c1ccc(OC)cc1)CCN(C)C3,"inconclusive: 28.2 µM [inhibitor, partial curve, poor fit]",–
Cn1c(SCc2cccc(F)c2)nc2c([nH]c3ccccc32)c1=O,inactive,–
CC(C)c1ccccc1OCCCN1CCCC1,active: 31.6 µM,–
CCn1c(SCC(=O)N2CCC(C)CC2)nnc1-c1ccccc1O,inactive,–
O=C(N/N=C/c1ccccc1O)C(=O)N1CCCCCC1,"inconclusive: 89.1 µM [inhibitor, partial curve]",–
Cc1nc(N)sc1-c1csc(Nc2ccccn2)n1,active: 79.4 µM,–
NNc1nc(-c2ccccc2)c2cc(Br)ccc2n1,"inconclusive: 79.4 µM [inhibitor, partial curve]",–
Cc1c(NC(=O)COC(=O)c2ccc(S(=O)(=O)N3CCOCC3)cc2)c(=O)n(-c2ccccc2)n1C,inactive,–
O=C(CCNC(=O)Cn1ccc2ccccc2c1=O)NCCN1CCc2ccccc2C1,"inconclusive: 5.01 µM [inhibitor, single point]",–
CCN(CC)S(=O)(=O)c1cccc(-c2n[nH]c(=S)n2/N=C/c2ccc(OC(F)F)cc2)c1,"inconclusive: 70.8 µM [inhibitor, single point]",–
O=C(CSc1nnc(NC(=O)C2CC(=O)N(c3ccccc3)C2)s1)NCc1ccco1 (configuration not stated),"inconclusive: 79.4 µM [inhibitor, single point]",–
CC1CC(C)CN(c2oc(Cc3ccccc3)nc2C#N)C1 (configuration not stated),"inconclusive: 70.8 µM [inhibitor, single point]",–
O=C(/C=C/c1ccco1)Oc1cccc2cccnc12,"inconclusive: 79.4 µM [inhibitor, single point]",–
Cc1cc(N)c2ccccc2n1,inactive,–
CCN(CC)c1ccc(CNc2ccc(Br)cn2)cc1,"inconclusive: 15.8 µM [inhibitor, full curve]",–
CCOCCCNC(=O)Nc1cc(C(=O)NCc2ccc(C(C)C)cc2)ccc1N1CCCC1,"inconclusive: 50.1 µM [inhibitor, partial curve]",–
CC1=C(SCCC#N)S/C(=C2\SC(C)=C(SCCC#N)S2)S1,active: 56.2 µM,–
CC(C)(CNC(=O)c1ccc(-c2cccc(C(F)(F)F)c2)o1)N1CCOCC1,inactive,–
c1ccc2sc(N3CN(CCN4CCOCC4)CN(c4nc5ccccc5s4)C3)nc2c1,"inconclusive: 39.8 µM [inhibitor, single point]",–
CSc1cccc(NC(=O)Cn2nc(C)c3sc4ccccc4c3c2=O)c1,"inconclusive: 50.1 µM [inhibitor, partial curve]",–
O=C1NN(c2ccccc2)C(=O)/C1=C/c1ccc(-c2cccc(C(=O)O)c2)o1,"inconclusive: 44.7 µM [inhibitor, partial curve]",–
CCOC(=O)c1ccccc1Nc1cc(C)nc2nc(-c3ccco3)nn12,"inconclusive: 79.4 µM [inhibitor, single point]",–
Cc1ccc(OCCSc2ncnc3sc(C)c(C)c23)cc1C,"inconclusive: 39.8 µM [inhibitor, single point]",–
CCc1ccc(NC(=O)COC(=O)c2nc3nc(C)cc(C)n3n2)cc1,inactive,–

SMILES,Potency,"activity change, negative = inhibition"
CSCC[C@@H](C(=O)Nc1ccc2c(c1)OCCO2)N1Cc2ccccc2C1=O,"inconclusive: 100 µM [inhibitor, partial curve]",–
CC1(C)C/C(=N\NC(=S)Nc2ccccc2F)c2cc(O)ccc2O1,active: 17.8 µM,–
COc1ccc(S(=O)(=O)Oc2ccc3c(c2)O/C(=C\c2cccnc2)C3=O)cc1,"inconclusive: 28.2 µM [inhibitor, full curve]",–
COc1ccc(C(=O)C2CCN(C(=O)Nc3ccc(C)cc3)CC2)cc1,"inconclusive: 28.2 µM [inhibitor, full curve]",–
CCCCCn1c(=O)c2ccccc2n2c(CCl)nnc12,inactive,–
CCN1C(C(=O)c2ccccc2)=C(OC(=O)COc2ccccc2)c2ccccc2S1(=O)=O,active: 35.5 µM,–
CS(=O)(=O)N1CCC(C(=O)Nc2cc(Cl)cc(Cl)c2)CC1,"inconclusive: 50.1 µM [inhibitor, partial curve]",–
O=C(N/N=C/c1cc(Br)ccc1O)c1ccccc1Cl,"inconclusive: 79.4 µM [inhibitor, partial curve]",–
COc1ccc(C)cc1S(=O)(=O)N1CCC(C(=O)NCCc2ccccc2)CC1,inactive,–
Cc1cc(OCC(C)C)ccc1/C(O)=C1/C(=O)C(=O)N(Cc2cccnc2)C1c1ccncc1 (configuration not stated),"inconclusive: 89.1 µM [inhibitor, single point]",–
Cc1ccc(Sc2ccc(NC(=O)CCN3C(=O)NC4(CCCC4)C3=O)cc2)c(C)c1,"inconclusive: 50.1 µM [inhibitor, partial curve]",–
Cc1c(N2C(=O)c3cccc4cccc(c34)C2=O)cnn1C,inactive,–
C=CCn1c(COc2ccc(CC)cc2)nnc1SC/C(O)=C(\C#N)c1nc2ccccc2[nH]1,"inconclusive: 89.1 µM [inhibitor, single point]",–
O=C(NCCc1c[nH]c2ccccc12)OCCCCOC(=O)NCCc1c[nH]c2ccccc12,"inconclusive: 22.4 µM [inhibitor, full curve]",–
COc1ccc(NC(=O)CSc2nnc(Cc3cccn3C)n2CCc2ccccc2)cc1OC,"inconclusive: 17.8 µM [inhibitor, full curve, poor fit]",–
CN1/C(=C/C2CC(=O)N(c3ccc([N+](=O)[O-])cc3)C2=O)C(C)(C)c2ccccc21 (configuration not stated),"inconclusive: 50.1 µM [inhibitor, partial curve]",–
CCN(CC)CCNC(=O)c1ccc(-c2nc(CS(=O)(=O)c3ccc(C)cc3)c(C)o2)cc1,inactive,–
COc1ccccc1OCCn1c(C(C)Oc2ccccc2)nc2ccccc21 (configuration not stated),inactive,–
Cc1cc(C(=O)CN2C(=O)c3ccccc3C2=O)c(C)n1C1CC1,inactive,–
O=C(CCCN1C(=O)/C(=C/c2ccccc2)SC1=S)Nc1ccc(C(=O)O)c(O)c1,"inconclusive: 50.1 µM [inhibitor, partial curve]",–
COCCn1c(-c2ccc(OC)cc2)cnc1SCC(=O)Nc1cccc2ccccc12,active: 25.1 µM,–
CCOC(=O)Nc1c2ccccc2nc2ccccc12,inactive,–
COc1cc(C(=O)N2CCN(Cc3ccccc3C(F)(F)F)CC2)cc(OC)c1OC,active: 20 µM,–
CCOC(=O)c1c(CN2CCCCC2)oc2ccc(OC)cc12,"inactive and inconclusive: 89.1 µM [inhibitor, partial curve]",–

SMILES,Potency,"activity change, negative = inhibition"
COc1ccc2[nH]c3c(=O)n(CCCCC(=O)NCCN4CCCC4)c(=S)[nH]c3c2c1,active: 5.62 µM,–
COc1ccccc1OCCNc1cc(N2CCCCC2)ccc1[N+](=O)[O-],"inconclusive: 31.6 µM [inhibitor, partial curve]",–
CCOC(=O)N1CCN(C(=O)CCn2c(=S)[nH]c3ccsc3c2=O)CC1,–,inconclusive: -45.7% [inhibitor]
Cc1ccc(/C=N/n2nnnc2N)o1,inactive,–
Cc1noc(C)c1COC(=O)c1csc2c1CCCC2,inactive,–
O=C(NCc1cccnc1)Nc1ccc(F)cc1F,inactive,–
CCOc1ccc(NC(=O)Cn2cc(C(=O)c3ccc(F)cc3)c(=O)c3cc4c(cc32)OCCO4)cc1,inactive,–
COc1ccc(CN2CCCC(C(=O)c3ccc(SC)cc3)C2)cc1Cn1cccn1 (configuration not stated),"inconclusive: 35.5 µM [inhibitor, partial curve]",–
Cc1ccc(-n2ncc(C(=O)N3CCN(Cc4ccccc4)CC3)c2C2CCN(C(=O)OC(C)(C)C)CC2)cc1,"inconclusive: 50.1 µM [inhibitor, partial curve]",–
CC(C)(C)c1nc(SCC(=O)c2ccccc2)c2ccccc2n1,inactive,–
Cc1ccc(OC(=O)c2ccc(N3CCOCC3)c([N+](=O)[O-])c2)cc1,"inconclusive: 22.4 µM [inhibitor, full curve]",–
COc1ccccc1CNC(=O)c1ccc2c(c1)N(Cc1cc(C)ccc1C)C(=O)c1ccccc1S2,inactive,–
Cc1cccc(-n2c(Cc3ccccc3)n[nH]c2=S)c1,active: 31.6 µM,–
CCCCC(=O)OCC(=O)C1(O)Cc2c(O)c3c(c(O)c2C(OC2CC(NC(=O)C(F)(F)F)C(O)C(C)O2)C1)C(=O)c1c(OC)cccc1C3=O (configuration not stated),"inconclusive: 5.62 µM [inhibitor, full curve]",–
CCn1c(SCC(=O)c2ccc(O)c(O)c2)nnc1-c1ccc(C)cc1,active: 28.2 µM,–
Cc1nc2c(o1)CCc1ccccc1C2N1CCN(C)CC1 (configuration not stated),inactive and active: 89.1 µM,–
Cc1cc(C(=O)CN2C(=O)NC3(CCCCC3)C2=O)c(C)n1-c1ccc2c(c1)OCO2,active: 56.2 µM,–
O=C(/C=C/c1ccc[nH]1)c1ccccc1,active: 17.8 µM,–
CCOc1ccc(N2C(=O)C(c3ccccc3)=C(c3nc4ccccc4s3)C2NC(C)=O)cc1 (configuration not stated),"inconclusive: 17.8 µM [inhibitor, full curve]",–
Cc1ccccc1OCc1n(CC(=O)OC2CC(C)CCC2C(C)C)c2ccccc2[n+]1C (configuration not stated),"inconclusive: 70.8 µM [inhibitor, partial curve, poor fit]",–
Cc1nc2ccccc2cc1C(=O)O,inactive,–
COc1cc(C(=O)Nc2nc(C)c(Cc3ccc4c(c3)OCO4)s2)cc(OC)c1OC,"inconclusive: 14.1 µM [inhibitor, full curve]",–
CNC(=S)Nc1cc(S(=O)(=O)Nc2cc(Cl)ccc2Cl)ccc1N1CCCC1,"inconclusive: 56.2 µM [inhibitor, partial curve]",–
Cc1cc(NC(=O)c2cc3ccccc3o2)no1,"inconclusive: 28.2 µM [inhibitor, full curve]",–
